Laboratory results reported in publication PMC4336329 (PLoS ONE, 2015).
Out of some 310,000 compounds screened, about 2,200 (0.71%) showed an effect of 50% or more. Effects have a minus sign here. The list shows a part of the results.

Each compound was assayed against human ether-à-go-go-related gene (hERG) potassium channel (human, UniProt Q12809) (assay: primary screen, population patch clamp on CHO cells stably expressing hERG).
Chain of human ether-à-go-go-related gene (hERG) potassium channel (Q12809 whole entry, looked up): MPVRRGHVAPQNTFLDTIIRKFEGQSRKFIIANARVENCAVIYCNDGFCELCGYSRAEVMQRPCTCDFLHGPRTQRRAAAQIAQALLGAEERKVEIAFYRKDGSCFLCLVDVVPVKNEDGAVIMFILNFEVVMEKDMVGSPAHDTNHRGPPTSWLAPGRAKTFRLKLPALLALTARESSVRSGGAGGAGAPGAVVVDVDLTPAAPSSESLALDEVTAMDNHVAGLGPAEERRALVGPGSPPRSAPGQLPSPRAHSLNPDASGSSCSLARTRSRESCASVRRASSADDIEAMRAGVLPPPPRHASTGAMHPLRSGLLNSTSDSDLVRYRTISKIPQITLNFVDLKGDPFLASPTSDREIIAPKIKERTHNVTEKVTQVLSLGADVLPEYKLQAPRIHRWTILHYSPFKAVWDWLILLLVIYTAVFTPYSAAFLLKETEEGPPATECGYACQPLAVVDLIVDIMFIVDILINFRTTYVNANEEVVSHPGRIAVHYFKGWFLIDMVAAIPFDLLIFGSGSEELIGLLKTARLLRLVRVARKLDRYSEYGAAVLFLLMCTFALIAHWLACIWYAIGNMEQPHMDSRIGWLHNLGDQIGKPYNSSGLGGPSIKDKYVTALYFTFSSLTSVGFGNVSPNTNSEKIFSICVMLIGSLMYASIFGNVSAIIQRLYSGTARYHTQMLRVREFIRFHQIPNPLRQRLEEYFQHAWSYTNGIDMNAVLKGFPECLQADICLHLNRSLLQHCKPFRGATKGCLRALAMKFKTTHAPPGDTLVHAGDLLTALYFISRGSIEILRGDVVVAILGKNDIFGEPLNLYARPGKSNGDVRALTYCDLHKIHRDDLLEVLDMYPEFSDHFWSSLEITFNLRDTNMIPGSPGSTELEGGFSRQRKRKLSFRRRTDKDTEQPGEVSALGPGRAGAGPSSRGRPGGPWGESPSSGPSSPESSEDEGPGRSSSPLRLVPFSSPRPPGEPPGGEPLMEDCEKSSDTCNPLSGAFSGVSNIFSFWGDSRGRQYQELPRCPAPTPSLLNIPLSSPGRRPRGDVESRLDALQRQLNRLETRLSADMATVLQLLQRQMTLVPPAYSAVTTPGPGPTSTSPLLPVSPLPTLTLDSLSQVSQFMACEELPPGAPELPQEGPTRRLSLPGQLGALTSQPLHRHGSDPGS
With `Cc1nc(SCC(=O)N2CCc3ccccc3C2)c2c(C)c(C)sc2n1` the “hERG current change (%, negative = inhibition) at 1uM” value was 1.44%. For `O=C(Nc1ccc(F)c(F)c1)c1ccc2c(c1)OCO2`, the “hERG current change (%, negative = inhibition) at 1uM” value was 7.43%. With `O=C(COC(=O)CNC(=O)c1ccc([N+](=O)[O-])o1)Nc1ncc(C(F)(F)F)cc1Cl` the “hERG current change (%, negative = inhibition) at 1uM” value was -19%. With `COC(=O)c1cc([N+](=O)[O-])c(-n2ccnc2)c([N+](=O)[O-])c1` the “hERG current change (%, negative = inhibition) at 1uM” value was 15.4%. For `Cc1cccc2cc(CN(Cc3ccco3)C(=O)Nc3cccc(C#N)c3)c(Cl)nc12`, the “hERG current change (%, negative = inhibition) at 1uM” value was 15.2%. For `O=C(O)C1CCCCC1C(=O)Nc1nc(-c2ccc(Cl)s2)cs1` (stereo not shown), the “hERG current change (%, negative = inhibition) at 1uM” value was 8.95%. With `FC(F)(F)c1nnc(-c2ccccc2)nc1N1CCOCC1` the “hERG current change (%, negative = inhibition) at 1uM” value was 4.84%. In the case of `CCOC(=O)CCCCCN1C(=O)c2cccc3cccc(c23)C1=O`, the “hERG current change (%, negative = inhibition) at 1uM” value is reported as 12.6%. In the case of `COc1cccc(-c2nc(CS(=O)(=O)CC(=O)Nc3ccc(F)cc3F)c(C)o2)c1`, the “hERG current change (%, negative = inhibition) at 1uM” value is reported as 33.6%. `COc1ccc(C(=O)Nn2c(SCC(=O)NCC3CCCO3)nc3ccccc3c2=O)cc1` (stereo not shown) was tested, and the “hERG current change (%, negative = inhibition) at 1uM” value was 13%. With `CCOc1ccc(NC(=S)NC(=O)/C=C/c2ccc(C)cc2)c([N+](=O)[O-])c1` the “hERG current change (%, negative = inhibition) at 1uM” value was 6.91%. `NC(=S)N/N=C/c1ccccc1` was tested, and the “hERG current change (%, negative = inhibition) at 1uM” value was 11.7%. For `CCCC[N+](CCCC)(CCCC)CCCC.Nc1ncnc2c1ncn2[C@@H]1O[C@H](COS(=O)(=O)[O-])[C@@H](O)[C@H]1O`, the “hERG current change (%, negative = inhibition) at 1uM” value was 10.2%. In the case of `Cc1ccc(CC(=O)NCc2cccnc2)cc1`, the “hERG current change (%, negative = inhibition) at 1uM” value is reported as -1.49%. With `Cc1cc(NC(=O)CSc2ccc3nnc(CCNS(=O)(=O)c4ccccc4)n3n2)no1` the “hERG current change (%, negative = inhibition) at 1uM” value was 4.27%. For `CCS(=O)(=O)NCc1csc(-c2ccccc2)n1`, the “hERG current change (%, negative = inhibition) at 1uM” value was 19.5%. `CCn1c(=O)c(C(=O)NNS(=O)(=O)c2ccc(C)cc2)c(O)c2ccccc21` was tested, and the “hERG current change (%, negative = inhibition) at 1uM” value was 1.76%. In the case of `Cc1nn(-c2ccccc2)c2c1C1(C(=O)Nc3ccccc31)N1C(=N2)Sc2ccccc21` (stereo not shown), the “hERG current change (%, negative = inhibition) at 1uM” value is reported as 1.34%. In the case of `O=C(CCc1ccccc1)Nc1ccnn1C1CCN(C/C=C/c2ccccc2)CC1`, the “hERG current change (%, negative = inhibition) at 1uM” value is reported as -24.2%. `Cc1ccc(C(=O)Nc2cnc3ccccc3c2)cc1` was tested, and the “hERG current change (%, negative = inhibition) at 1uM” value was 6.66%. With `Cc1nnc(C)n1/N=C/c1cccnc1` the “hERG current change (%, negative = inhibition) at 1uM” value was 13.2%. For `Cc1ccc(-n2c(SCC(=O)NC3CCS(=O)(=O)C3)nc3ccccc3c2=O)cc1` (stereo not shown), the “hERG current change (%, negative = inhibition) at 1uM” value was 18.8%. In the case of `CC(C)(C)OC(=O)NCCCC[C@@H](C(=O)NCCCCCCCCCCC(=O)N1CCN(C(=O)OC(C)(C)C)CC1)n1cc(CCO)nn1`, the “hERG current change (%, negative = inhibition) at 1uM” value is reported as 10.5%. With `O=C(Nc1cccc(S(=O)(=O)N2CCCCC2)c1)C1CC(=O)N(Cc2ccco2)C1` (stereo not shown) the “hERG current change (%, negative = inhibition) at 1uM” value was 8.96%. For `CN1c2ccccc2C(C)(C)C12CC(c1ccc(Cl)c(S(=O)(=O)N3CCCC3)c1)=NO2` (stereo not shown), the “hERG current change (%, negative = inhibition) at 1uM” value was 12%. With `COc1cc(C2C(C#N)=C(N)Oc3c2ccc2ccccc32)ccc1OCC(=O)Nc1ccccc1C` (stereo not shown) the “hERG current change (%, negative = inhibition) at 1uM” value was 20.3%. `CC1=C(C(=O)Nc2ccc(C)cc2C)C(c2ccc(C)o2)NC(=O)N1` (stereo not shown) was tested, and the “hERG current change (%, negative = inhibition) at 1uM” value was 1.85%. For `CCOc1ccc(S(=O)(=O)NNC(=O)c2cc3ccccc3o2)cc1`, the “hERG current change (%, negative = inhibition) at 1uM” value was -6.76%. `NC(=S)N/N=C/c1c[nH]c2ccc(OCc3ccccc3)cc12` was tested, and the “hERG current change (%, negative = inhibition) at 1uM” value was 10.2%. With `O=C(NNC(=S)Nc1ccc(Cl)cc1Cl)C1CC1` the “hERG current change (%, negative = inhibition) at 1uM” value was 4.5%. With `COCCCn1c(=S)[nH]c2ncccc2c1=O` the “hERG current change (%, negative = inhibition) at 1uM” value was -8.38%. `COc1ccc(Br)cc1CN1CCCC(C(=O)N2CCCCC2)C1.O=C(O)C(=O)O` (stereo not shown) was tested, and the “hERG current change (%, negative = inhibition) at 1uM” value was -16.9%. With `CCN(CCn1cccn1)Cc1nc(Cc2cccc(F)c2)no1` the “hERG current change (%, negative = inhibition) at 1uM” value was 5.58%. `CCOC(=O)c1cc(C#N)c(SC)nc1-c1ccccc1` was tested, and the “hERG current change (%, negative = inhibition) at 1uM” value was 17%. With `O=C(CSc1nc2ccccc2s1)Nc1cc(S(=O)(=O)N2CCOCC2)ccc1O` the “hERG current change (%, negative = inhibition) at 1uM” value was 4.06%. In the case of `Cc1cc(C)cc(NC(=O)Cc2ccc(S(=O)(=O)N3CCCC3)s2)c1`, the “hERG current change (%, negative = inhibition) at 1uM” value is reported as -0.0487%. With `Cc1ccc(C(=O)Nc2cccc(C(=O)NCc3ccccc3)c2)cc1` the “hERG current change (%, negative = inhibition) at 1uM” value was 11.8%. With `COc1ccc(CCNC(=O)CC(c2ccccc2)c2cccc(C)c2O)cc1OC` (stereo not shown) the “hERG current change (%, negative = inhibition) at 1uM” value was 6%. In the case of `CCn1cc(C(=O)NCCCO)c(=O)c2cc(F)c(N3CCN(C)CC3)cc21.Cl`, the “hERG current change (%, negative = inhibition) at 1uM” value is reported as 2.01%. In the case of `Cn1c(C(=O)OCC(=O)NCc2ccco2)cc2sccc21`, the “hERG current change (%, negative = inhibition) at 1uM” value is reported as 3.82%. `Cc1c(Cl)cnc(NC(=O)COC(=O)Cc2coc3ccc4ccccc4c23)c1Cl` was tested, and the “hERG current change (%, negative = inhibition) at 1uM” value was -6%. `O=c1cccc2n1CC1CC2CN(Cc2cccc(Cl)c2Cl)C1` (stereo not shown) was tested, and the “hERG current change (%, negative = inhibition) at 1uM” value was -7.2%. With `CC1(C)Oc2ccc(C(=O)N3CCCCC3)cc2N(CC(=O)NCc2ccccc2)C1=O` the “hERG current change (%, negative = inhibition) at 1uM” value was 1.75%.
